From patent US20230139700A1 (BIO THERA SOLUTIONS, published 2023)

T1: human OX40 on cells (human, UniProt P43489 29-277)
T1 sequence (looked up): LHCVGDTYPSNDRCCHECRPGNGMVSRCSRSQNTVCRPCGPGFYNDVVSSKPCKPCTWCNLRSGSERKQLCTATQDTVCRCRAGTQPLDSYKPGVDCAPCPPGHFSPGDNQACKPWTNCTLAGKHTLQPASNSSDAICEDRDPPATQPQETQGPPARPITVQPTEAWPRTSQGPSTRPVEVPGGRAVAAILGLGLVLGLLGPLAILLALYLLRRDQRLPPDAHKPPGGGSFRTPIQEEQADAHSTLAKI

T2: hOX40-FC (human, UniProt P43489 29-216)
T2 construct: range 1-216; Made in HEK293; The stated range 1-216 starts at residue 1, so it holds the signal peptide of the entry; also called human OX40 extracellular region fused to human IgG1-Fc; not shown: human IgG1-Fc, UniProt P01857, residues 104 to 330
T2 sequence (looked up): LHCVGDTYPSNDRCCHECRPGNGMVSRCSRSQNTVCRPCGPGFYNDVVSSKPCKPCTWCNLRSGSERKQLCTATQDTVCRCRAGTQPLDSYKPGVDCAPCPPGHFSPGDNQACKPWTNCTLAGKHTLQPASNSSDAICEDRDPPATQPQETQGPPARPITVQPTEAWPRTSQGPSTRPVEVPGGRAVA

T3: TIM3 on Jurkat cells (Homo sapiens (Human), UniProt Q8TDQ0 22-301)
T3 construct: also called Jurkat-TIM3
T3 sequence: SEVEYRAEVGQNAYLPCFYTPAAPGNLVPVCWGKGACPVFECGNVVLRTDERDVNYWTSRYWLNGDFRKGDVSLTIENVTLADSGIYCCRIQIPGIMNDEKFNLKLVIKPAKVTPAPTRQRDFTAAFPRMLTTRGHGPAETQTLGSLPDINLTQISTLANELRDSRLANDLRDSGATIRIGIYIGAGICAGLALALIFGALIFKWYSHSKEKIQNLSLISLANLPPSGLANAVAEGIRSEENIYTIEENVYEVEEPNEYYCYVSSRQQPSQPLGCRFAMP

T4: mouse OX40-his (mouse, UniProt P47741 20-211)
T4 construct: also called mOX40-his; not shown: his tag
T4 sequence (looked up): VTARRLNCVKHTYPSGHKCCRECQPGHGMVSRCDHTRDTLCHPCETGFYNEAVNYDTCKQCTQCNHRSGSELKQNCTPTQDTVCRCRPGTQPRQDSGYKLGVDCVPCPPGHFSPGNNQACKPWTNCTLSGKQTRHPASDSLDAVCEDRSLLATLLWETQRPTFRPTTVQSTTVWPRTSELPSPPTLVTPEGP

T5: hCD27-FC (human, UniProt P26842 20-191, limits assumed)
T5 construct: not shown: Fc part
T5 sequence (looked up): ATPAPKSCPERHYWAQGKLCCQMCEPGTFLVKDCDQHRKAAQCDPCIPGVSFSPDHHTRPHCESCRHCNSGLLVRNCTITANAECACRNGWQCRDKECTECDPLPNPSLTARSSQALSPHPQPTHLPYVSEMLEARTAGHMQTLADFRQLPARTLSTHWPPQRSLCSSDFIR

T6: TIGIT on Jurkat cells (Homo sapiens (Human), UniProt Q495A1 22-244)
T6 construct: also called Jurkat-TIGIT
T6 sequence: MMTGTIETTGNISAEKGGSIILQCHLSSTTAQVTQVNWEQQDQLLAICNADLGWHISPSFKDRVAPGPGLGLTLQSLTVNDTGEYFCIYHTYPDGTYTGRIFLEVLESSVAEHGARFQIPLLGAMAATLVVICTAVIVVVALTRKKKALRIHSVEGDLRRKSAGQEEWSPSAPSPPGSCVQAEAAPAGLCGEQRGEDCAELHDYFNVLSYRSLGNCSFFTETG

T7: hOX40-his (human, UniProt P43489 29-216)
T7 construct: range 1-216; Made in HEK293; The stated range starts at residue 1 (holds the signal peptide of the entry); no cleavage site stated; not shown: his tag
T7 sequence (looked up): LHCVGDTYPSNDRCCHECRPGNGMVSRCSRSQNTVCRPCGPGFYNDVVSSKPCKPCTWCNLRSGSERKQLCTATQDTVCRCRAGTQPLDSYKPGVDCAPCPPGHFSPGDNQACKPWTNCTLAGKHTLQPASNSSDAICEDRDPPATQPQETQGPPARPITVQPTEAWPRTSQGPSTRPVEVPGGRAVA

T8: CTLA4 on Jurkat cells (Homo sapiens (Human), UniProt P16410 36-223)
T8 construct: also called Jurkat-CTLA4
T8 sequence: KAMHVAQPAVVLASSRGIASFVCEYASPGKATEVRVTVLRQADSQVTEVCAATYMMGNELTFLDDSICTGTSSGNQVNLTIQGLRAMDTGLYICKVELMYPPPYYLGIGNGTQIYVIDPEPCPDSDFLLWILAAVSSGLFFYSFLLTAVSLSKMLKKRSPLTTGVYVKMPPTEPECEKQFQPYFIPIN


What was measured:
human OX40 on cells [1] = target: T1, human OX40 on cells; assay: cell-based or functional assay
rhesus monkey OX40-his = target: T9, rhesus monkey OX40-his (rhesus monkey); assay: BLI (Fortebio), protein A sensor - antibody - OX40-his (100 nM)
T9 construct: also called Rh-OX40; Rh-OX40-his

hOX40-FC = target: T2, hOX40-FC; assay: BLI (ForteBio), biotinylated antibody on SA sensor, OX40-Fc 50 nM bivalent, 1:1 model
Procedure: The ForteBio affinity assay was conducted according to the existing conventional method (Estep, P et al., MAbs, 2013, 5(2): 270-8). The brief process is as follows: the sensor was equilibrated offline in an assay buffer (such as PBS) for 20 min and then subjected to online test for 60 s to establish a signal baseline. The purified antibodies obtained as described above were each loaded online onto a corresponding sensor (ForteBio), and finally the ForteBio affinity assay was conducted. The biotinylated candidate antibodies were adsorbed with the SA sensor, and binding and dissociation of hOX40-FC were each detected for about 5 min. The results are shown in Table 4, and N.D indicates not detected in Table 4. Finally, kinetic analysis was performed for all by using a 1:1 binding model.

TIM3 on Jurkat cells = target: T3, TIM3 on Jurkat cells; assay: flow cytometry on Jurkat-TIM3 cells
mouse OX40-his = target: T4, mouse OX40-his; assay: ELISA, 10 ng antigen coated
Procedure: (§1) 10 ng of mouse OX40-his (mOX40-his), hCD27-FC and hOX40-his were coated overnight at 4° C. by ELISA, washed, and then incubated with antibody-F23-32K and control antibody, and finally labeled for color developing with HRP-labeled secondary antibody.

hCD27-FC = target: T5, hCD27-FC; assay: ELISA, 10 ng antigen coated
Procedure: as §1

TIGIT on Jurkat cells = target: T6, TIGIT on Jurkat cells; assay: flow cytometry on Jurkat-TIGIT cells
hOX40-his = target: T7, hOX40-his; assay: BIACORE, antibody on the probe, 20 nM OX40-his
From the text: Table 10 illustrates the CDRs of eight full antibodies containing these amino acid mutations, and the rest of the sequences are the same as those of antibody-F23-32K. […] The sequences of the anti-OX40 antibody (antibody M) are shown in Table 12; wherein, the expression cells used for the antibodies above (including antibody M) are CHO-S cells, and the method for preparing the antibody M-KF is as follows: the antibody M was identical to the antibody M-KF in terms of amino acid sequence and was expressed by the CHO cell line in which the fut8 gene was knocked out (the content of fucose in antibody M-KF was about 0%).

human OX40 on cells [2] = target: T1, human OX40 on cells; assay: flow cytometry on Jurkat-hOX40 cells, 3-fold dilutions from 50 nM, MFI
Procedure: Antibody-F23-4k and antibody-F23-32k, as well as two control antibodies 11D4 and OX40mAb24 at different concentrations were used to incubate Jurkat-hOX40 cells.

CTLA4 on Jurkat cells = target: T8, CTLA4 on Jurkat cells; assay: flow cytometry on Jurkat-CTLA4 cells

NFκB reporter in Jurkat-hOX40-NFκB cells, fold against wild-type antibody, without protein A (human OX40 on cells [1]) [fold]	Kd (rhesus monkey OX40-his) [nM]	Kd (hOX40-FC) [nM]	binding result (TIM3 on Jurkat cells)	binding result (mouse OX40-his)	binding result (hCD27-FC)	binding result (TIGIT on Jurkat cells)	Kd (hOX40-his) [nM]	koff (hOX40-his) [s⁻¹]	kon (hOX40-his) [M⁻¹ s⁻¹]	EC50 (human OX40 on cells [2]) [nM]	binding result (CTLA4 on Jurkat cells)	Binder
~10	–	–	–	–	–	–	–	–	–	–	–	32k-RY (antibody) heavy: QVQLEESGGGVVQPGESLRLSCAASGFTFSSYGMHWVRQAPGKGLEWVAVISYDGSNQYYADSVKGRFTISRDNSKNTLYLQMNSLRAEDTAVYYCAKDNQDSSPDVGIDYWGQGTLVTVSS[human IgG1 constant region with E345R S440Y (EU numbers) not shown] light: DIQMTQSPSSLSASVGDTVTITCRASQNISPFLNWYQQKPGKAPKLLIYAASSLQSGVPSRFSGSGSGTDFTLTISSLQPEDFATYYCQQYNSYPLTFGGGTKVEIKRTVAAPSVFIFPPSDEQLKSGTASVVCLLNNFYPREAKVQWKVDNALQSGNSQESVTEQDSKDSTYSLSSTLTLSKADYEKHKVYACEVTHQGLSSPVTKSFNRGEC
–	9	0.4	no binding (tested: 100 nM)	no binding	no binding	no binding (tested: 100 nM)	11.5	0.00965	841000	1	no binding (tested: 100 nM)	Antibody-F23-32k (antibody, human IgG1, kappa, also called antibody No. 6) heavy: QVQLEESGGGVVQPGESLRLSCAASGFTFSSYGMHWVRQAPGKGLEWVAVISYDGSNQYYADSVKGRFTISRDNSKNTLYLQMNSLRAEDTAVYYCAKDNQDSSPDVGIDYWGQGTLVTVSS[human IgG1 constant region not shown] light: DIQMTQSPSSLSASVGDTVTITCRASQNISPFLNWYQQKPGKAPKLLIYAASSLQSGVPSRFSGSGSGTDFTLTISSLQPEDFATYYCQQYNSYPLTFGGGTKVEIKRTVAAPSVFIFPPSDEQLKSGTASVVCLLNNFYPREAKVQWKVDNALQSGNSQESVTEQDSKDSTYSLSSTLTLSKADYEKHKVYACEVTHQGLSSPVTKSFNRGEC
~10	–	–	–	–	–	–	–	–	–	–	–	32k-R (antibody, human IgG1, kappa) heavy: QVQLEESGGGVVQPGESLRLSCAASGFTFSSYGMHWVRQAPGKGLEWVAVISYDGSNQYYADSVKGRFTISRDNSKNTLYLQMNSLRAEDTAVYYCAKDNQDSSPDVGIDYWGQGTLVTVSS[human IgG1 constant region with E345R (EU numbers) not shown] light: DIQMTQSPSSLSASVGDTVTITCRASQNISPFLNWYQQKPGKAPKLLIYAASSLQSGVPSRFSGSGSGTDFTLTISSLQPEDFATYYCQQYNSYPLTFGGGTKVEIKRTVAAPSVFIFPPSDEQLKSGTASVVCLLNNFYPREAKVQWKVDNALQSGNSQESVTEQDSKDSTYSLSSTLTLSKADYEKHKVYACEVTHQGLSSPVTKSFNRGEC
